To fix the notation:
B1: CCUACCA (DNA:RNA)
RNA: GGGAGACCGGAAUUCAGAUUGUCCCCUACCAUUAAAUCCCGUCGUAGCCACCA
DNA 1: CAATCTGAATTCCGGTCTCCC
DNA 2: TGGTGGCTACGACGGGATT
B2: GCGUUAC (DNA:RNA)
RNA: B1 RNA with C25G, U27G, A28U, C29U, C30A, A31C
DNA 1: CAATCTGAATTCCGGTCTCCC
DNA 2: TGGTGGCTACGACGGGATT
B3: UGUUUGA (DNA:RNA)
RNA: B1 RNA with C25U, C26G, A28U, C29U, C30G
DNA 1: CAATCTGAATTCCGGTCTCCC
DNA 2: TGGTGGCTACGACGGGATT
B4: GAGGCGG (DNA:RNA)
RNA: B1 RNA with C25G, C26A, U27G, A28G, C30G, A31G
DNA 1: CAATCTGAATTCCGGTCTCCC
DNA 2: TGGTGGCTACGACGGGATT
B5: UGGUGAC (DNA:RNA)
RNA: GGGAGACCGGAAUUCAGAUUGUCCUGGUGACUUAAAUCCCGUCGUAGCCACCA
DNA 1: CAATCTGAATTCCGGTCTCCC
DNA 2: TGGTGGCTACGACGGGATT
B6: CUAUGAC (DNA:RNA)
RNA: B5 RNA with U25C, G26U, G27A
DNA 1: CAATCTGAATTCCGGTCTCCC
DNA 2: TGGTGGCTACGACGGGATT
B7: UUCGGGA (DNA:RNA)
RNA: B5 RNA with G26U, G27C, U28G, A30G, C31A
DNA 1: CAATCTGAATTCCGGTCTCCC
DNA 2: TGGTGGCTACGACGGGATT
B8: AGAUCAG (DNA:RNA)
RNA: B5 RNA with U25A, G27A, G29C, C31G
DNA 1: CAATCTGAATTCCGGTCTCCC
DNA 2: TGGTGGCTACGACGGGATT
B9: CCGAGUA (DNA:RNA)
RNA: B1 RNA with U27G, C29G, C30U
DNA 1: CAATCTGAATTCCGGTCTCCC
DNA 2: TGGTGGCTACGACGGGATT

Changes are numbered by the printed parent chain; changes in the protein carry UniProt numbers. The list shows a part of the results.

For this assay, the target named is T1, RBFOX1 RRM (Homo sapiens, UniProt Q9NWB1 109-208).
T1 sequence: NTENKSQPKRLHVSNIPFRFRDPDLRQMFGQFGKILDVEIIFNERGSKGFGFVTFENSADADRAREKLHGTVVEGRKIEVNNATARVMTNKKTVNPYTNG
Put plainly: EMSA; HiTS-Eq, 1 nM pool, 10 min; buffer printed only for the single-RNA assays: 10 mM Tris pH 7.5, 150 mM NaCl, 3.4 mM EDTA, 0.001% NP-40, 30 C. As to conditions: tags: His6 N-terminal (pET28a); label: 5' 32P. The essentials:
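These values rest on relative association constants, computed from read-count changes of each RNA species versus the control reaction and normalised to the cognate motif. Reads came from free RNA recovered by 8% native PAGE after purified RbFox RRM (wild type or mutant) at increasing concentrations was equilibrated for 10 min in 50 µL with 1 nM of a 5′-radiolabelled pool with 7 randomized nucleotides and DNA-annealed flanks.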
(A gel shift assay detects complexes by their altered migration in electrophoresis.)
For the molecule B1, the binding signal was 0.00055 KA relative to UGCAUGU.
B2: the binding signal is 0.0111 KA relative to UGCAUGU.
Take B3: the binding signal is 0.0341 KA relative to UGCAUGU.
Next, B4: 0.0182 KA relative to UGCAUGU; B5: 0.0057 KA relative to UGCAUGU.
Take B6: the binding signal is 0.00603 KA relative to UGCAUGU.
Turning to B7, the binding signal was 0.00228 KA relative to UGCAUGU.
B8: the binding signal was 0.0105 KA relative to UGCAUGU.
Next, B9: 0.00679 KA relative to UGCAUGU.

Source of the values: publication PMC9911399, “Two distinct binding modes provide the RNA-binding protein RbFox with extraordinary sequence specificity”.
